# Laboratory results reported in article PMC4336329 (PLoS ONE, 2015).
# The campaign covered roughly 310,000 compounds. About 14,000 (4.5%) showed an effect of 50% or more. The effect is printed as a negative number. The list shows a part of the results.
# Target: human ether-à-go-go-related gene (hERG) potassium channel (human, UniProt Q12809)
# Assay: primary screen, population patch clamp on CHO cells stably expressing hERG
# 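Further: peak tail current of the secondary pulse compared with the same well before compound.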
# Chain of human ether-à-go-go-related gene (hERG) potassium channel (Q12809 whole entry, looked up): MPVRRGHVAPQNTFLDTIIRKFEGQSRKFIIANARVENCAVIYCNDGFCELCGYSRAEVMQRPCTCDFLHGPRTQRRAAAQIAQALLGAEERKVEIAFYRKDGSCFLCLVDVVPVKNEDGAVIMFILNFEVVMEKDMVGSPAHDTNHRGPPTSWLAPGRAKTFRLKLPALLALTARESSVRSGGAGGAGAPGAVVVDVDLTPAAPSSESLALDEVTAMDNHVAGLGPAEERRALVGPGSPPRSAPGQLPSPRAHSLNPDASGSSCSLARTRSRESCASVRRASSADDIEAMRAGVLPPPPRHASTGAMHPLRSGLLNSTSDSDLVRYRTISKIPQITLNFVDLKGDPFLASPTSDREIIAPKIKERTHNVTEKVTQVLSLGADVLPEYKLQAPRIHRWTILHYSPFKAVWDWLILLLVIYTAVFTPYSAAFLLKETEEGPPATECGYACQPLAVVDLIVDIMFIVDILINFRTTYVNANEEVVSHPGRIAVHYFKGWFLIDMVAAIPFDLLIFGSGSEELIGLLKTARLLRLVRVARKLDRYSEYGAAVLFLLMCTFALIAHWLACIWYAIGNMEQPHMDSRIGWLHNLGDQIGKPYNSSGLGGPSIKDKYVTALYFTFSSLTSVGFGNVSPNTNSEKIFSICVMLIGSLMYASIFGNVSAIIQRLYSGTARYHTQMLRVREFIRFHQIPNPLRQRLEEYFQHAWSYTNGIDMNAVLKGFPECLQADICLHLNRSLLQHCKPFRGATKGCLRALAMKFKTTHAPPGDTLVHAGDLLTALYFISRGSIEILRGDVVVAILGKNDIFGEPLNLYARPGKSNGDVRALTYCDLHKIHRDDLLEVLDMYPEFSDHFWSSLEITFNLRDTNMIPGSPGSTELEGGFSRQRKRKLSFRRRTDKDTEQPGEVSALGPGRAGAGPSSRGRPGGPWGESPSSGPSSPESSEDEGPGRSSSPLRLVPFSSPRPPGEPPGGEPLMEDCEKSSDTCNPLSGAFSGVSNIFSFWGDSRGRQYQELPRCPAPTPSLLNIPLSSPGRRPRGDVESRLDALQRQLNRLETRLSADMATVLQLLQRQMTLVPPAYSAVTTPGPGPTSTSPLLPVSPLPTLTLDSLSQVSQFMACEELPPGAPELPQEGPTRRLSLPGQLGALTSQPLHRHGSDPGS
row,Compound,"hERG current change (%, negative = inhibition) at 10uM [%]"
1,CCOP(=O)(OCC)C(Nc1ccc(C(=O)O)cc1)c1ccccc1 (centres unmarked),33.4
2,Cc1ccc(NC(=O)CNC(=O)CC23CC4CC(CC(C4)C2)C3)c(O)c1,7.8
3,COc1ccc(CN2C(=O)C(Cc3ccccc3)Nc3ncnc(N4CCN(c5ccccc5)CC4)c32)cc1.O=C(O)C(F)(F)F (centres unmarked),9.01
4,Cc1cc(NC(=O)COC(=O)C2CC(=O)N(c3ccccc3)C2)no1 (centres unmarked),12.2
5,COc1ccccc1N(CCC#N)C(=O)CSc1ccc2c(c1)OCCO2,-17.9
6,CCn1c(C(=O)N2CCC(C(=O)NCc3ccc(OC)cc3)CC2)cc2sccc21,-41.9
7,Cn1c(SCCN2CCOCC2)nc2sc3c(c2c1=O)CCCC3,-0.959
8,O=C(Nc1ccc(Cl)cc1)c1ccc2snnc2c1,4.11
9,COc1ccccc1NC(=O)Nc1ccc(C(=O)N2CCCCC2)cc1,-5.42
10,O=c1[nH]c(=O)n(CCc2ccc(F)cc2)c(O)c1/C=N/N1CCCCC1,12.3
11,O=C(O)COc1ccccc1/C=N/NC(=O)c1ccc(F)cc1,4.02
12,Oc1ccc(/C=N/NC(=S)Nc2cccnc2)cc1,10.2
13,N#C/C(=C\c1cccs1)C(=O)N1CCOCC1,17.1
14,O=C(NCc1cccnc1)C(=O)NCC1OCCCN1S(=O)(=O)c1ccc(Cl)cc1 (centres unmarked),-2.01
15,O=C(CSc1ccc2ccccc2n1)Nc1nsc(-c2ccc(Cl)cc2)n1,-9.81
16,O=C(O)c1cccc(O)c1O,8.15
17,CCOC(=O)C1=NN(c2ccc(C)cc2)C2(S1)SC(C(C)=O)=C(C)N2c1ccccc1 (centres unmarked),12.5
18,Cc1onc(-c2ccccc2)c1CNS(=O)(=O)c1cccc(Br)c1,-0.969
19,Cc1ccc(C)c(S(=O)(=O)NCC(=O)Nc2sc3c(c2C(N)=O)CCC(C)C3)c1 (centres unmarked),17.7
20,Cc1cc(C)c(C(=O)COC(=O)C2CCN(c3ccc(C(F)(F)F)cn3)CC2)c(C)c1,8.61
21,O=C(c1ccc(Cl)cc1)C1CCCN(Cc2ccc3c(c2)OCCO3)C1 (centres unmarked),-73.5
22,Cc1ccn(C)c(=N)c1,23.1

row,Compound,"hERG current change (%, negative = inhibition) at 10uM [%]"
1,COCCNC(=O)CSc1nc2ccc(N3CCOCC3)cc2c(=O)n1Cc1ccc(OC)cc1,-22.4
2,CCC(C)(C)NC(=O)C(c1ccc(F)cc1)N(Cc1cccc(OC)c1)C(=O)c1cnccn1 (centres unmarked),9.72
3,COc1ccccc1OCC(=O)NCc1ccco1,-12.1
4,C#CCNc1c2c(nc3ncnn13)CC(C)CC2 (centres unmarked),-10.7
5,CCN1CCN(C(=S)Nc2ccc(Cl)cc2Cl)CC1,7.51
6,Cc1ccccc1S(=O)Cc1ccc(C(=O)NC2CC2)o1 (centres unmarked),1.8
7,COc1cc(C(=O)NCC(c2cccnc2)N2CCN(C)CC2)cc(OC)c1OC (centres unmarked),12.9
8,NC(=O)CC(NC(=O)c1ccccc1)c1ccc(NC2CCCC2)c([N+](=O)[O-])c1 (centres unmarked),5.39
9,COC(=O)CN1C(=O)COc2ccc(S(=O)(=O)N3CCCC3)cc21,9.73
10,Cc1c(C=C2C(=O)c3ccccc3C2=O)cc(C#N)n1C,4.72
11,COc1ccc(/C=N/NC(=O)c2c([N+](=O)[O-])c(C)nn2C)cc1,15.1
12,CCOC(Cn1c(SCC(=O)Nc2cc(C)on2)nc2ccccc2c1=O)OCC,7.63
13,CC(C)c1ccc(NC(=O)C2CCN(S(=O)(=O)c3ccc4c(c3)NC(=O)CO4)CC2)cc1,15.9
14,N#C/C(=C\c1c(N2CCCCC2)nc2ccccn2c1=O)C(=O)NC1CCS(=O)(=O)C1 (centres unmarked),-15
15,Cc1ccccc1NC(=O)CSC1=C(C#N)C(c2ccsc2)CC(=O)N1 (centres unmarked),-2.24
16,COc1ccc(C)cc1NC(=O)CNC(c1ccccc1)c1ccc(C)cc1 (centres unmarked),12.7
17,Cc1cc(/C=N/NC(N)=O)c(C)c(CO)c1,15.8
18,O=C(NC(=S)Nc1ccc(CN2CCCCC2)cc1)c1cc2ccccc2o1,-24.3
19,Cn1c2c(c(=O)n(C)c1=O)CN(Cc1ccc3c(c1)OCO3)CN2,-4.04
20,CCN(Cc1ccccc1)Cc1ccc(OCc2ccccc2)cc1.O=C(O)C(=O)O,13.7
21,O=C(CSc1nc(O)c(C(c2ccccc2)c2ccccc2)c(=O)[nH]1)N1CCOCC1,5.82
22,CC1Cc2ccccc2N1C(=O)CSc1ncccc1C(=O)O (centres unmarked),19.2
